Experimental data as given in PubChem BioAssay (NCI).
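Cultured in 96-well plates, cells were exposed to test compound for 48 hours across five concentrations. Abbreviation: GI50, concentration required for 50% inhibition of growth. TGI denotes the concentration required for complete inhibition of growth.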

Test system: NCI-H322M lung
Assay: NCI-60 cell line screen, 48 h

Row | Structure (SMILES) | TGI [µM] | GI50 [µM]
1 | COc1cc2c(c(OC)c1OC)-c1ccc(SC)c(=O)cc1C(CC(=O)Oc1ccccc1F)C2 (stereo not given) | > 7.5 | –
2 | CC[C@]1(O)C[C@@H]2CN(CCc3c([nH]c4ccccc34)[C@@](C(=O)OC)(c3cc4c(cc3OC)N(C)[C@H]3[C@@](O)(C(=O)OC)[C@H](OC(=O)CCCBr)[C@]5(CC)C=CCN6CC[C@]43[C@@H]65)C2)C1 | > 86.8 | < 0.0221
3 | CCOC(=O)/C=C(/OCC)[C@@H]1C(C(=O)c2ccc(Cl)cc2)[C@@H]1/C(=C\C(=O)OCC)OCC (stereo not given in full) | > 100 | –
4 | Clc1ccc(-c2nn3c(COc4ccc(OCc5nnc6sc(-c7ccc(Cl)cc7)nn56)c(Cl)c4)nnc3s2)cc1 | > 100 | –
5 | Nc1c(-c2ccccc2)c2ccc([N+](=O)[O-])cc2c(=O)n1-c1cccc(C(=O)O)c1 | > 100 | –
6 | Clc1ccc(/C=C/c2csnn2)cc1 | > 100 | –
7 | COc1ccc(S(=O)(=O)NNS(C)(=O)=O)cc1OC | > 100 | –
8 | COc1cc(/C=C2\C(=O)N(c3ccc(Cl)cc3)C(c3ccccc3)S2(=O)=O)cc(OC)c1OC (stereo not given) | > 100 | –
9 | CC(C)OC(=O)c1cc(NC(=S)OC(C)C)ccc1Cl | > 58.2 | –
10 | CC(C)NC(=O)OCCN=C1c2ccccc2C(Br)C(Br)c2ccccc21 (stereo not given) | 72.3 | –
11 | Cc1ccc(/C=C2\CCCC(C(NO)c3ccc(C)cc3)C2=NO)cc1 (stereo not given) | 33.3 | –
12 | CC(C)(C)OC(=O)CC(S(=O)(=O)c1ccccc1)S(=O)(=O)c1ccccc1 | > 100 | > 100
13 | c1ccc2c(c1)n1nnnc1c1nnnn21 | > 100 | –
14 | Cc1ncc([N+](=O)[O-])n1CCOc1ccc(C(=O)/C=C/c2ccc(C(F)(F)F)cc2)cc1 | 6.41 | 2.26
15 | Cc1cc2nc3c(C(OC4OC(CO)C(O)C(O)C4O)C(O)CO)nn(-c4ccc(F)cc4)c3nc2cc1C (stereo not given) | > 100 | –
16 | CN(Cc1ccccc1)C(=S)S | > 100 | –
17 | COc1ccc(/C(C#N)=C2/O/C(=N/N)C(c3ccc(OC)c(OC)c3)C2=O)cc1OC (stereo not given) | > 100 | –
18 | CCCCCCC1CCCCN1C(c1ccccc1)C(O)c1ccccc1 (stereo not given) | 29.2 | 14.2
19 | COc1ccc(N=C2C(=O)Nc3ccc(Br)cc32)cc1 | 86.1 | –
20 | CN(C)CCCNC(=O)N/N=C/c1ccccn1 | > 10 | –
21 | CN(CC(=O)O)c1ncc2c(n1)-c1ccccc1CC2 | > 100 | –
22 | CC1(O)CC23CC(O)C4(O)C(CC(O)C4(C)C)C(C)(O)C2CCC1C3O (stereo not given) | > 100 | –
23 | O=C(Nc1ccc(-n2cc(-c3ccncc3)c(-c3ccc(Cl)c(O)c3)n2)cc1)c1ccc(Cl)c(Cl)c1 | > 100 | > 100
24 | N#Cc1cc2c(n(C3OC(CO)C(O)C(O)C3O)c1=S)CCC2 (stereo not given) | > 100 | –
25 | CCOC(=O)CC1C(C(=O)OCC)=Cn2c([nH]c3cccc4cccc2c43)=C1C(=O)OCC (stereo not given) | > 100 | –

Row | Structure (SMILES) | TGI [µM] | GI50 [µM]
26 | CSc1ccc2c(c1)N(CCCN(C)C)c1ccccc1S2 | 27.1 | –
27 | CN1CCN(Cc2ccc(C(=S)Nc3ccccc3)s2)CC1 | > 100 | –
28 | COc1ccc(-c2nc3sccn3c2/C=C/C(=O)c2cc(OC)c(OC)c(OC)c2)cc1 | > 100 | 4.38
29 | COc1cc2ccc(C(C)NCC#N)cc2cc1OC (stereo not given) | > 100 | –
30 | Cc1ccccc1NC(=O)C(=O)CC(=O)c1sc(-n2nc(-c3ccccc3)cc2-c2ccccc2)nc1C | > 100 | –
31 | CCOc1ccc(N=Nc2c(-c3ccccc3)nn(C(=O)CC(=O)Nc3ccccc3Cl)c2-c2ccccc2)cc1 | > 100 | –
32 | CCOC(=O)c1c(-c2ccc(Cl)cc2)c(C#N)c(=S)n(C2OC(COC(C)=O)C(OC(C)=O)C(OC(C)=O)C2OC(C)=O)c1C (stereo not given) | > 100 | –
33 | CC(=O)OCCc1cc2ccccc2oc1=O | > 100 | –
34 | CN(C)CCC(/C=C/c1ccccc1)=N\Nc1c(F)c(F)c(F)c(F)c1F | > 100 | –
35 | Nc1ncnc2c1ncn2C1C(O)C=C(CO)C1O (stereo not given) | > 625 | –
36 | C/C(=C\C(=O)O)C(=O)N(C)c1ccccc1I | > 100 | –
37 | CC[P+](c1ccccc1)(N(C)C)N(C)C | > 100 | –
38 | COC(=O)c1sc(=S)c2sc(C(=O)OC)c(C(=O)OC)c2c1C(=O)OC | > 100 | 27.8
39 | CN=C1C=C(/N=C2/C=C(N/C(=C\C#N)C(C)(C)O)OC2(C)C)OC1(C)C | > 100 | –
40 | CC(=O)Nc1ccc2c(c1)[nH]c(=O)c1cc(Cl)ccc12 | > 100 | –
41 | Clc1ccc(C2=CC(c3ccccc3)N3C(=N[C@H]4CCCC[C@@H]43)N2)cc1 (stereo not given in full) | 17.5 | –
42 | COc1ccc(C2CC(c3cccc(Nc4ccncc4)c3)=NN2c2ccccc2)cc1 (stereo not given) | 7.61 | 2.53
43 | CN(Cc1cnc2nc(N)nc(N)c2n1)c1c(Cl)cc(C(=O)NC(CCC(=O)O)C(=O)O)cc1Br (stereo not given) | > 100 | < 0.01
44 | O=C(c1ccccc1)C1C(c2ccccc2[N+](=O)[O-])N1C1CCCCC1 (stereo not given) | 28.9 | –
45 | Cc1c(C)c2c(c(N)c1C#N)C(=O)N(NC(=S)Nc1ccccc1)C2=O | > 100 | –
46 | COC(=O)c1c2c(cc3c1CC1(Cc4cc5c(cc4C1)CCCC5)C3)CCCC2 | > 100 | –
47 | COc1cc(C(=O)Nc2ccc(-c3nc4ccccc4[nH]3)cc2)cc(OC)c1OC | 27.1 | 11.1
48 | CCCC/C=C1/CCC(CN(C)C)C1=O (stereo not given) | 19.1 | –
49 | COc1cc(C(=O)/C=C/c2c(C)n([O-])c3ccc(Cl)cc3[n+]2=O)cc(OC)c1OC | > 100 | 25.9
